Source: US20240342167A1, “INHIBITORS OF PORCINE REPRODUCTIVE AND RESPIRATORY SYNDROME VIRUS” (University of Connecticut, priority 2023, published 2024)
Some results were stated once for a whole list of compounds, not compound by compound. At least one structure is not confirmed: it was looked up by name or label, or the drawing left a doubt.

Assays:
[1] = target: T1, PPI between PRRSV GP4 and CD163-SRCR5 domain (Sus scrofa, UniProt Q2VL90); assay: BiFC assay GP4/SRCR5; format: cell-based, porcine CD163; PRRSV VR2332; conditions: 5 μM, HEK293T
T1 construct: SRCR5 domain of porcine CD163 receptor was amplified from cDNA of pig cells; expressed in transfected cells; host or cells: HEK293T
T1 sequence (Q2VL90 477-577): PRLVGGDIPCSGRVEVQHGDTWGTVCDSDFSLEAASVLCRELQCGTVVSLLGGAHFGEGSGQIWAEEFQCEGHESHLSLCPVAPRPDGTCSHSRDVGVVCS
Procedure: (§1) HEK293T cells were cultivated in 6-well plates in FP medium and transfected with 1 μg XpBiFC-VN155 (I152L)-SRCR5 and 1 μg pBiFC-VC155-GP2/GP4 using Fugene6. After 4 h, cells were digested with 0.05% Typsin-EDTA (ThermoFisher Scientific, MA, USA)) and passaged to 48-well plates which were coated with EmbryoMax 0.1% Gelatin Solution (Sigma-Aldrich, MO, USA) and preloaded with 5 μM B7 analogues. Fluorescence images were taken at 24 h after transfection and fluorescence intensity was measured by image J.

PRRSV Lelystad = assay: PRRSV titration assay, Lelystad; format: cell-based; conditions: 15 μM, culture medium of infected PAMs; range over the compounds named together
[2] = target: T2, PPI between PRRSV glycoprotein GP2a and CD163-SRCR5 (Sus scrofa, UniProt Q2VL90); assay: BiFC assay GP2a/SRCR5; format: cell-based, porcine CD163; PRRSV VR2332; conditions: 5 μM, HEK293T
T2 construct: SRCR5 domain of porcine CD163 receptor was amplified from cDNA of pig cells; expressed in transfected cells; host or cells: HEK293T
T2 sequence (Q2VL90 477-577): as above
Procedure: as §1

Compound | reduction of the YFP fluorescence signal compared with NC (inhibition in GP4/SRCR5 BiFC) [1] | reduction in the viral titer, Lelystad (PRRSV Lelystad) | reduction of the YFP fluorescence signal compared with NC (inhibition in GP2a/SRCR5 BiFC) [2]
Cc1ccccc1S(=O)(=O)Nc1nc2ccccc2nc1Nc1ccc(S(=O)(=O)N2CCOCC2)cc1 [D2] | more than 70% | 1.4-2.5 logs | –
Cc1cc(F)ccc1S(=O)(=O)Nc1nc2ccccc2nc1Nc1cccc(Cl)c1Cl [F12] | ≤ 70% | 3.6-3.9 logs | more than 70%
COc1ccccc1NS(=O)(=O)c1cccc(Nc2nc3ccccc3nc2NS(=O)(=O)c2ccc(F)cc2C)c1 [F9] | – | 3.6-3.9 logs | more than 90%
COc1ccc(Nc2nc3ccccc3nc2NS(=O)(=O)c2ccc(F)cc2C)cc1Cl [A3] | ≤ 70% | 1.4-2.5 logs | more than 70%
O=S(=O)(Nc1nc2ccccc2nc1Nc1cccc(S(=O)(=O)N2CCCCC2)c1)c1ccccc1 [G4] | – | 1.4-2.5 logs | more than 90%
O=S(=O)(Nc1nc2ccccc2nc1Nc1cccc(S(=O)(=O)N2CCCC2)c1)c1ccccc1 [C6] | ≤ 70% | – | more than 70%
Cc1cccc(S(=O)(=O)Nc2nc3ccccc3nc2Nc2cccc(S(=O)(=O)N3CCCCC3)c2)c1 [E10] | – | 3.6-3.9 logs | more than 90%
Cc1ccc(S(=O)(=O)Nc2nc3ccccc3nc2Nc2cccc(S(=O)(=O)N3CCCC3)c2)cc1 [A7] | ≤ 70% | 1.4-2.5 logs | more than 70%
